In all, about 380,000 compounds went through this assay and about 4,000 (1.1%) were called active. This list was built around the results that the source calls inconclusive (neither active nor inactive); the mix of calls is not that of the screen. Calls come from the whole dose curve; as a rule, active = well fitted activation curve with a large enough effect; inconclusive = small, poorly fitted or top-dose-only effect; inactive = no such curve, though single readings can be large or run the other way. Potencies of inconclusive entries are doubtful fits and often do not repeat.
Experiment: qHTS Assay to Identify Small Molecule Activators of BRCA1 Expression; note: nearly all actives have a fitted effect of over 80% in size
Conditions: MCF7-BRCA1-FFLuc reporter, luminescence, 48 h; activation: at 46.1 µM (top of the series), scaled: vehicle 0%, 10 µM genistein 100% unless noted
How it was run: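 Activators of BRCA1 expression were detected as increased firefly luciferase luminescence in engineered MCF7 cells after 48 h compound incubation. Signals were scaled to genistein 10 microM as full activation.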
In the case of `O=C(COC(=O)c1ccc(S(=O)(=O)N2CCOCC2)cc1)Nc1nc(-c2ccccc2)cs1`, the Potency is reported as inconclusive: 17.8 µM [activator, single point].
With `CCOC(=O)c1ccc(N2Cc3ccccc3C2=N)cc1` the Potency was inconclusive: 35.5 µM [activator, single point].
In the case of `Cc1ccc(C(=O)/C=C/c2c[nH]c3ccccc23)cc1`, the Potency is reported as inconclusive: 25.1 µM [activator, single point].
For `Nn1c(COc2ccc(Cl)cc2)nc2ccccc2c1=O`, the Potency was active: 5.62 µM.
In the case of `O=C(Nc1cccc(/C=C/c2ccccn2)c1)c1cc(Cl)ccn1`, the Potency is reported as inconclusive: 7.94 µM [activator, partial curve, poor fit].
For `COc1ccc2c(c1)c1c(c(=O)n(-c3ccc(C)cc3)c(=O)n1CC(=O)NCc1ccc(C)cc1)n2C`, the Potency was “inactive”.
With `COCCn1c(=O)[nH]c2cc(C(=O)Nc3cccc(F)c3)ccc2c1=O` the Potency was inconclusive: 35.5 µM [activator, single point].
In the case of `CC(=O)c1cccc(NC(=S)NC(=O)c2ccc(C)cc2Cl)c1`, the Potency is reported as “inactive”.
With `O=C(c1cc(-c2ccc(O)cc2)on1)N1CCCC1` the Potency was inconclusive: 0.631 µM [activator, full curve, poor fit].
With `COc1ccccc1-c1ccc(Nc2cccc(C(F)(F)F)c2)nn1` the Potency was “inactive”.
For `O=C(O)c1ccc(-c2noc(-c3cccc(F)c3)n2)cc1`, the Potency was inconclusive: 1.41 µM [activator, full curve, poor fit].
For `O=C(Nc1ccc2nn(-c3ccccc3)nc2c1)c1cccs1`, the Potency was active: 4.47 µM.
With `CCOC(=O)N1CCN(C(=O)CSc2nnc(-c3cc(OC)cc(OC)c3)o2)CC1` the Potency was “inactive”.
In the case of `O=C(CSc1ncnc2sccc12)N1CCCCC1`, the Potency is reported as inconclusive: 14.1 µM [activator, partial curve, poor fit].
For `Cc1ccc(Nc2n[nH]c(C)c2[N+](=O)[O-])cc1C`, the Potency was inconclusive: 0.631 µM [activator, full curve, poor fit].
With `O=C(CCCl)Nc1cccc2cccnc12` the Potency was “inactive”.
With `COc1ccc(CNC(=O)c2noc3c2CCCC3)cc1` the Potency was inconclusive: 22.4 µM [activator, single point].
In the case of `COc1ccc(NC(=O)C/C(C)=N/NC(=O)c2ccccn2)c(OC)c1`, the Potency is reported as inconclusive: 17.8 µM [activator, single point].
With `COc1ccc(C(=O)Cc2cc(OC)c(OC)cc2[N+](=O)[O-])c(OC)c1` the Potency was “inactive”.
For `O=C(Nc1ccncc1)Nc1cccc(Cl)c1`, the Potency was “inactive”.
For `Cc1ccoc1C(=O)Nc1cccc(Oc2ccccc2)c1`, the activation was inconclusive: 251% [activator].
With `Cc1ccccc1NC(=O)c1cccc2c1C(=O)N(C1CCCCC1)C2` the Potency was “inactive”.
In the case of `c1ccc2sc(-c3ccncc3)nc2c1`, the Potency is reported as inconclusive: 7.08 µM [activator, partial curve, poor fit].
With `COc1cccc(CN2C(=O)c3ccccc3Sc3ccc(C(=O)OCc4ccco4)cc32)c1` the Potency was “inactive”.
For `CC(C)Cc1cc(C(=O)NCc2cccs2)no1`, the Potency was active: 12.6 µM.
With `Cc1ccc(NC(=O)CN2C(=O)N/C(=C/c3ccccc3OCc3cccc(C(=O)O)c3)C2=O)cc1` the Potency was inconclusive: 12.6 µM [activator, partial curve, poor fit].
With `Fc1ccc(COc2ccc(-c3nnco3)cc2)c(Cl)c1` the Potency was active: 8.91 µM.
With `CCc1cc2c(CN3CCN(Cc4ccccc4)CC3)cc(=O)oc2cc1O` the Potency was “inactive”.
In the case of `COc1ccc(C)cc1NC(=O)Nc1ccc(Br)cn1`, the activation is reported as inactive: -3.98% [at 1.84 µM, scaled: vehicle 0%, 10 µM genistein 100%].
For `CCOc1ccc(-c2nn(-c3ccccc3)cc2C2NC(=O)NC(C)=C2C(=O)OC(C)C)cc1` (centres undefined), the Potency was “inactive”.
For `Cc1nn(C)c(C)c1CNC(=O)Nc1ccc(Cl)cc1`, the Potency was active: 6.31 µM.
With `Cc1cc(C(=O)COC(=O)c2ccc[nH]c2=O)c(C)n1-c1ccc(Br)cc1` the Potency was inconclusive: 1.26 µM [activator, partial curve, poor fit].
For `O=C(NCC(O)c1ccccc1)c1ccccc1` (centres undefined), the Potency was inconclusive: 3.16 µM [activator, full curve, poor fit].
In the case of `CCCOc1ccc(-c2cccc(NS(=O)(=O)c3ccccc3)c2)nn1`, the Potency is reported as inconclusive: 17.8 µM [activator, single point].
With `C=CCNC(=O)c1cc(-c2ccc(Br)cc2)on1` the Potency was inconclusive: 2.51 µM [activator, partial curve, poor fit].
With `O=C(Nc1ccc2c(c1)C(=O)c1ccccc1-2)c1ccccc1` the Potency was active: 2.82 µM.
In the case of `COc1cccc(NC(=O)/C=C/c2ccco2)c1`, the Potency is reported as inconclusive: 2.82 µM [activator, full curve, poor fit].
For `CCCN1CNC(=S)N(c2ccccc2OC)C1`, the Potency was “inactive”.
For `Cc1nc(NC(C)C)c2cnn(CCc3ccccc3)c2n1`, the Potency was inconclusive: 17.8 µM [activator, single point].
With `CC(=O)c1ccc(NC(=O)c2ccc3snnc3c2)cc1` the Potency was inconclusive: 14.1 µM [activator, partial curve, poor fit].
For `Cc1ccnc(N/C=C/C(=O)c2ccc(Br)cc2)c1`, the Potency was inconclusive: 1.58 µM [activator, partial curve, poor fit].
For `c1ccc(Nc2nc(N3CCNCC3)nc(N3CCOCC3)n2)cc1`, the Potency was “inactive”.
For `CSCCNC(=O)c1ccc2nc(Cc3ccccc3F)oc2c1`, the Potency was active: 12.6 µM.
With `CSc1nc2ccc(NC(=O)c3cccs3)cc2s1` the Potency was active: 4.47 µM.
In the case of `O=C(c1ccc2c(c1)N(Cc1ccccc1F)C(=O)c1ccccc1S2(=O)=O)N1CCN(c2ccccn2)CC1`, the Potency is reported as “inactive”.
For `O=C(Nc1nc2cc3c(cc2s1)OCCO3)C1=COCCO1`, the activation was inconclusive: -77% [activator].
For `O=C1NN(c2cccc(Br)c2)C(=O)/C1=C\c1ccc(O)cc1`, the Potency was “inactive”.
In the case of `Cc1ccccc1Nc1nc(-c2cccnc2)cs1`, the Potency is reported as inconclusive: 3.16 µM [activator, full curve, poor fit].
In the case of `OCCCN1c2ccccc2Nc2nnc(-c3ccccc3)cc21`, the Potency is reported as inconclusive: 1 µM [activator, full curve, poor fit].
Potency is the fitted concentration of half-maximal effect; tags give direction and shape of the fitted curve.
